“And” between values parts separate entries of the source, which are not always exact repeats. Identical values can stand only once. About 1,200 (2.5%) of roughly 48,000 compounds were called active. Not shown: some 2% with an inconclusive outcome.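 Rule for the calls: active = activation of at least 60% and not above a set upper limit (about 1 call in 100 departs from these limits); inconclusive = activation of 40% to 60%, or above that upper limit; inactive = activation under 40%.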 Some of the results follow.

This experiment concerns the target Probable G-protein coupled receptor 32 (Homo sapiens) (UniProt O75388). Nature of the experiment: qHTS for Agonists of Human Resolvin D1 Receptor DRV1. The settings on record: CHO-K1 GPR32 beta-arrestin PathHunter luminescence, 90 min; at 76.9 µM; active compounds read high; zero percent set by DMSO-only wells. The method, boiled down: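 Using DMSO wells as EC0, agonist-induced signal was taken as chemiluminescence from beta-Gal reconstituted upon beta-arrestin recruitment to GPR32 in CHO-K1 cells after 90 min compound treatment.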
UniProt O75388, sequence (O75388 whole entry, looked up): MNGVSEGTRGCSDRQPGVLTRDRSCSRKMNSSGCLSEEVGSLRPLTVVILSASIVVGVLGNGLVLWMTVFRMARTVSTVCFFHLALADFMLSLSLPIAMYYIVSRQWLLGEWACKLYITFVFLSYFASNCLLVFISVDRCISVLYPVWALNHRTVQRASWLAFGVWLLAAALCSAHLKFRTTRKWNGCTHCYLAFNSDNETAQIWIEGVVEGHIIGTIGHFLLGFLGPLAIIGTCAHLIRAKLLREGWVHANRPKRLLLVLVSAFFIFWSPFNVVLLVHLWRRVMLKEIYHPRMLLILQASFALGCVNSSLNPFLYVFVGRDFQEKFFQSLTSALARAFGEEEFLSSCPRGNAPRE
(In qHTS, concentration-response curves come from the screen itself.)
Regarding `CSc1ccc(CCNC(=O)Cn2ncn3c(cc4ccccc43)c2=O)cc1`, the activation was inactive: -3.36%. To `Cn1nc(-c2ccc(OCC(=O)Nc3ccc(Cl)cc3)cc2)c2ccccc2c1=O` belongs inactive: -2.1%; to `CCN(C(=O)c1cc2c(=O)n(CC)c3ccccc3c2s1)c1cccc(C(F)(F)F)c1`, inactive: 14.7%. As for `COc1ccc(Br)cc1CNC(=O)c1cnc2sc(N3CCCCCC3)nn2c1=O`, the activation was inactive: -13.4%. In the case of `Cc1ccc2c(c1)cc1c(=O)n(CC(=O)NC(C)CCc3ccccc3)nc(C)n12` (configuration not stated), the activation is inactive: 2.74%.

For `CC1CCN(c2ccc(-c3cccc(NS(=O)(=O)c4cccs4)c3)nn2)CC1`, the activation is inactive: -9.8%. As for `O=C(NCc1cccs1)c1ccc(CSc2nc3cccnc3n2Cc2ccc(F)cc2)cc1`, the activation was inactive: -11.6%. `COc1ccc(-c2nn(-c3ccc(F)cc3)c3c2cnc2cc4c(cc23)OCO4)cc1`: the activation was inactive: -0.0814%. Next, `COc1ccccc1CNc1ccc(-c2nc(-c3ccccc3C)no2)cc1[N+](=O)[O-]`: inactive: -6.7%. On to `CCc1ccccc1NC(=O)CSc1nc2n[nH]c(C)c2c(=N)n1-c1cccc(C)c1`, for which the activation was inactive: -14.2%.

Take `Cn1c2c(c(=O)n(C)c1=O)C(c1ccccc1[N+](=O)[O-])CC(=O)N2` (configuration not stated): the activation was inactive: -21.1%.

Regarding `CC1CCn2c(nc3cc(C(=O)NCc4ccc(F)cc4)ccc32)C1` (configuration not stated), the activation is inactive: -11%.

In the case of `Cc1cc(C)cc(NC(=O)C2CCN(C(=O)c3cnn(-c4ccccc4)c3-n3cccc3)CC2)c1`, the activation was inactive: 6.48%.

As to `CCOc1nc(NC(=O)NS(=O)(=O)Oc2cccc(Cl)c2)nc(-c2ccccc2)n1`, the activation is inactive: 10.9%. Next, `O=C(Nc1ccc(F)c(F)c1)c1cc(S(=O)(=O)NCc2ccc3c(c2)OCO3)ccc1F`: inactive: 35.3%; `CCCCC(=O)Nc1nnc(SCc2cc(=O)n3cc(C)ccc3n2)s1`: inactive: -8.28%; `CCOC(=O)c1nn2c(C(F)(F)F)cc(-c3ccc(C)cc3)nc2c1Cl`: inactive: -1.17%.

On to `Cc1ccc(CNC(=O)CSc2nc(=O)n(Cc3ccco3)c3c2CCC3)cc1`, for which the activation is inactive: -2.21%.

As for `COc1ccc(-c2c(C#N)c(SCC(=O)Nc3ccc(C)cc3)nc(C)c2C(=O)Nc2ccccc2)cc1`, the activation is inactive: -4.25%. Next, `COc1cccc(CNC(=O)CN2CCCN(Cc3ccccc3)S2(=O)=O)c1`: inactive: 10.5%; `Cc1ccn2c(Nc3ccc4c(c3)OCO4)c(-c3ccc(Cl)cc3)nc2c1`: inactive: -18.7%; `COc1ccc(C2=NC3(CCCCCC3)N(CC(=O)Nc3cccc(Cl)c3)C2=O)cc1`: inactive: -43.9%.

Consider `CC(C)(C)NCC(O)c1ccc(O)c(CO)c1` (configuration not stated), for which the activation is inactive: -1.33% and inactive: -7.91% and inactive: -8.85%. On to `COc1ccc(C(=O)c2oc3ccccc3c2NC(=O)COc2ccc(C)cc2)cc1`, for which the activation is inactive: -8.49%. Next, `CCN1CCN(c2c(S(=O)(=O)c3ccc(Cl)cc3)cnc3ccccc23)CC1`: inactive: -13.4%. As for `Cc1ccc(NC(=O)Cn2c(=O)n(CCCS(=O)(=O)C3CCCCC3)c(=O)c3ccccc32)cc1F`, the activation was inactive: -9.16%. Next, `CC(NC(=O)c1ccc(Cn2c(=O)c3cccn3c3cccnc32)cc1)c1ccccc1` (configuration not stated): inactive: -19.6%; `COc1ccc(S(=O)(=O)c2cc3cc(OC)ccc3oc2=O)cc1`: inactive: -1.51%; `[N-]=[N+]=Nc1ccc(C(=O)CSC[C@H](NC(=O)CC[C@H](N)C(=O)O)C(=O)NCC(=O)O)cc1`: inactive: 1.43%.

For `CCc1ccccc1NC(=O)N1CCc2cc(OC)c(OC)cc2C1CC(=O)OC` (configuration not stated), the activation is inactive: -12.6%. Turning to `Cc1ccc(C)c(Nc2nc3c(S(=O)(=O)c4ccc(Br)cc4)nnn3c3ccsc23)c1`, the activation was inactive: -23%.

On to `Cn1c(=O)c2c(-c3ccccc3Cl)n(Cc3ccc(Cl)cc3)cc2n(C)c1=O`, for which the activation was inactive: -14.4%. To `Cc1cccc(N2CCN(C(=O)CCC(=O)NNc3nc4ccccc4c4nc(C)nn34)CC2C)c1` (configuration not stated) belongs inactive: -17.2%; to `CCC1CN(S(=O)(=O)c2ccc3c(c2)NC(=O)CC(=O)N3)c2cc(Cl)ccc2O1` (configuration not stated), inactive: -11.1%. `CCN1CCN(c2cc(-c3ccc(F)cc3)c3c(n2)CCCCCC3)CC1`: the activation was inactive: -0.798%.

With `CCc1ccccc1NC(=O)CN1C(=O)COc2ccc(S(=O)(=O)Nc3ccccc3)cc21`, the activation is inactive: -0.0377%. Next, `COc1cc(C2c3c(-c4c(C)cc(C)cc4O)n[nH]c3C(=O)N2CCCOC(C)C)cc(OC)c1OC` (configuration not stated): inactive: 32.2%. To `COc1ccc(-c2nc3c(C#N)c[nH]n3c2NC2CCCC2)cc1` belongs inactive: -27.6%; to `COc1ccccc1Cc1nc2ccccc2nc1SCC(=O)Nc1ccccc1C(F)(F)F`, inactive: -10.8%; to `CCOc1ccc(CNCc2c(C(=O)O)n(Cc3ccc(OC)cc3)c3ccccc23)cc1`, inactive: 5%. With `Cc1ccc(N2CC(c3nnc(Cc4ccccc4Cl)o3)CC2=O)cc1` (configuration not stated), the activation was inactive: -8.86%. With `COc1ccc(N(C(=O)c2ccc(Cl)cc2)S(=O)(=O)c2ccc(C)cc2)cc1`, the activation was inactive: -10.4%. Next, `COc1ccc(S(=O)(=O)n2nc(-c3ccco3)nc2NCc2ccc(OC)c(OC)c2)cc1`: inactive: -11.8%; `O=C(CSc1cn(CCNC(=O)c2ccccc2F)c2ccccc12)Nc1ccc(F)cc1`: active: 91.1%; `COc1cccc(N2C(=O)CSC23C(=O)N(CC(=O)Nc2cccc(Cl)c2)c2ccccc23)c1` (configuration not stated): inactive: -14.8%. To `CCn1c(C)c(C)c2cc(C(=O)N3CCN(c4cccc(C)c4C)CC3)ccc21` belongs inactive: -35.3%; to `COc1cccc(-n2c(-c3ccco3)nc3c(cnn3-c3ccc(Cl)cc3)c2=O)c1`, inactive: -1.15%; to `COc1cc(CN(C(=O)COc2ccccc2Cl)c2ccccn2)cc(OC)c1OC`, inactive: -15.3%.

`CCC(=O)Nc1ccc2nc(SCc3ccccc3)sc2c1`: the activation was inactive: -9.7%. Next, `COc1ccc(CC(=O)Nc2cc(-c3nc4cccnc4s3)ccc2C)cc1`: inactive: -20.1%. Next, `CCOC(=O)c1ccc(N2C(=O)c3n[nH]c(-c4cccs4)c3C2c2cccc(OC)c2)cc1` (configuration not stated): inactive: -9.82%; `CCOc1ccc(-n2c(=O)c3c4c(sc3n(CC(=O)NC(C)CC)c2=O)CCC4)cc1` (configuration not stated): inactive: -14%; `O=S(=O)(c1ccc(Cl)cc1)c1nnn2c1nc(NCc1cccs1)c1sccc12`: inactive: -14.8%. Next, `COc1ccc(C)cc1NC(=O)CSc1nc(=O)[nH]c2c1CCCC2`: inactive: -4.28%; `CCC(CC)C(=O)N1CCc2cc(OC)c(OC)cc2C1COc1ccc(C(=O)OC)cc1` (configuration not stated): inactive: -16.7%.

`COc1ccc(-c2nnc(Nc3ccc(OC)c(C(N)=O)c3)c3ccccc23)cc1`: the activation is inactive: -26.5%. As for `CCS(=O)(=O)c1nc(S(=O)(=O)c2ccc(C)cc2)c(NC(C)c2ccccc2)s1` (configuration not stated), the activation is inactive: -22.7%. For `CCOc1ccc(-n2cc(-c3ccccc3)c3c(N4CCC(C)CC4)ncnc32)cc1`, the activation was inactive: -39%. Next, `CCOc1ccccc1NC(=O)C(=O)c1cc(C)n(-c2ccc(F)cc2)c1C`: inactive: 0.0694%. On to `Cc1cc(C)cc(Nc2ncnc3onc(-c4ccc(F)cc4)c23)c1`, for which the activation is inactive: -8.48%. In the case of `Cc1ccc(Nc2c(-c3ccc(C)cc3)nc3ccc(C)cn23)cc1`, the activation is inactive: -23.7%. For `Cc1ccc(S(=O)(=O)c2nc(-c3ccc(F)cc3)oc2SCC(=O)c2ccccc2)cc1`, the activation was inactive: -18%. Consider `CCc1ccc2oc(-c3cccc(NC(=O)C(C)(C)Oc4ccc(Br)cc4)c3)nc2c1`, for which the activation was inactive: -10.3%. Next, `CCc1ccc(S(=O)(=O)NCc2nc3cccnc3n2Cc2ccccc2Cl)cc1`: inactive: -20.9%.

Regarding `CCCOc1ccc(CNC(=O)Cn2cc3c(n2)-c2c(oc(C(=O)N4CCOCC4)c2C)CC3)cc1`, the activation is inactive: -9.04%. To `COc1cc(NC(=O)NC(C)c2c(-n3cccc3)sc3c2CCN(C)C3)cc(OC)c1` (configuration not stated) belongs inactive: -17%. With `COc1cccc(-n2c(SCC(=O)N3CCCc4ccccc43)nc3c([nH]c4ccccc43)c2=O)c1`, the activation was inactive: -5.7%. To `CCOc1ccc(CNC(=O)c2cc3c(s2)-c2ccccc2OC3)cc1` belongs inactive: -0.654%; to `O=C(c1ccc2c(c1)CCCC2)N1CCN(c2nc3ccc(F)cc3s2)CC1`, inactive: -7.69%. To `O=C(CCSCc1cccc(F)c1)NCc1ccccc1` belongs inactive: 4.34%; to `COc1ccc(Cl)cc1NC(=O)Cn1c(=O)n(CCCC(=O)NCCc2ccc(OC)c(OC)c2)c(=O)c2ccccc21`, inactive: 9.05%; to `CCc1ccc(NC(=O)c2ccc3c(O)c(S(=O)(=O)c4ccccc4)c(=O)[nH]c3c2)cc1`, inactive: 5.77%. Next, `COc1ccccc1C(=O)Nc1ccc(OCc2cc(=O)n3cccc(C)c3n2)cc1`: inactive: -2.82%; `Cc1c(NC(=O)c2ccc(Cl)cc2)cc(C(C)C)c(O)c1S(=O)(=O)c1ccccc1`: inactive: 6.34%. As to `O=C(NCC1CCN(Cc2ccccc2Cl)CC1)c1cc2ccc3cccnc3c2[nH]1`, the activation is inactive: -5.42%. Next, `COc1ccccc1CNC(=O)CCc1c(C)nn(-c2ccc(N3CCCC3)nn2)c1C`: inactive: -17.6%; `Cc1cc(=O)n(Cc2ccccc2Cl)c2c1c(C)nn2-c1ccccc1`: inactive: -0.0911%.

As for `Cc1cc(NC(=O)CSc2nc3c([nH]c4ccccc43)c(=O)n2-c2ccc(Cl)cc2)no1`, the activation is inactive: 0.3%. Turning to `COc1ccccc1CNC(=O)CCS(=O)(=O)c1ccc2c(c1)CC(C)N2C(=O)C1CC1` (configuration not stated), the activation was inactive: -1.25%. Next, `Cc1ccc(CSc2nc3ccsc3c(=O)n2CCC(C)C)cc1`: inactive: -36.9%. To `O=c1oc2ccc(F)cc2cc1-c1nc(-c2cccs2)no1` belongs inactive: -3.04%; to `COc1ccc(CC(=O)Nc2nnc3n2CCS3)cc1`, inactive: 1.22%.

Source of the values: PubChem BioAssay AID1346428 (National Center for Advancing Translational Sciences (NCATS), 2018).
